No constants are given. Whether binding was seen depends on the method and setting. For some of these results: Binding seen in cells or lysates may run through a third protein. Some binding calls cover weakened binding; strength is not graded here. Tags and fused reporters may be left off the sequences shown. Values belong to the molecule of their own block, whether it stands above or below them.
Legend:
SUVR2-Flag (Arabidopsis) [1] = target: T1, SUVR2-Flag (Arabidopsis) (UniProt Q9FNC7); assay: co-IP; protein extracts of Arabidopsis plants harboring two tagged proteins; anti-c-Myc agarose, anti-Flag M1 agarose or anti-AGO4 conjugated agarose; western blotting
T1 sequence: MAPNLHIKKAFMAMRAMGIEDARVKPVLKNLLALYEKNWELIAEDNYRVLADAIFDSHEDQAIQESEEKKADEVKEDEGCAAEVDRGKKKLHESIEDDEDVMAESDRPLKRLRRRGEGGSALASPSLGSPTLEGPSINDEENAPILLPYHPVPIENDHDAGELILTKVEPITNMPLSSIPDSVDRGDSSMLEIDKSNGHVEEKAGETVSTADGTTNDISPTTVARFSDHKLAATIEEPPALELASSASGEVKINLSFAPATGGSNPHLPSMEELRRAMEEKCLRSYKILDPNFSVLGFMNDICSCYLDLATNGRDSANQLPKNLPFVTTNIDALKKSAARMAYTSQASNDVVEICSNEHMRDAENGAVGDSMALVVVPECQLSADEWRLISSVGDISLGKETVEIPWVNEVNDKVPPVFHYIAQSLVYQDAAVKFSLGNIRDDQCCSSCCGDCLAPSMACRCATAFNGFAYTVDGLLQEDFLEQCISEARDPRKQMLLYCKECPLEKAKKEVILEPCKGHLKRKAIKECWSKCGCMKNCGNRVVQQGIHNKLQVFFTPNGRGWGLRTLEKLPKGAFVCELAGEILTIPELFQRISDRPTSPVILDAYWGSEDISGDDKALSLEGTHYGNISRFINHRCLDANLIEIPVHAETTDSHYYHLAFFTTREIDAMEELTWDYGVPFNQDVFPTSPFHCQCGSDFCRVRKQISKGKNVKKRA

Chains of the proteins cited; added tags and fusions are not shown.
UniProt Q94A79: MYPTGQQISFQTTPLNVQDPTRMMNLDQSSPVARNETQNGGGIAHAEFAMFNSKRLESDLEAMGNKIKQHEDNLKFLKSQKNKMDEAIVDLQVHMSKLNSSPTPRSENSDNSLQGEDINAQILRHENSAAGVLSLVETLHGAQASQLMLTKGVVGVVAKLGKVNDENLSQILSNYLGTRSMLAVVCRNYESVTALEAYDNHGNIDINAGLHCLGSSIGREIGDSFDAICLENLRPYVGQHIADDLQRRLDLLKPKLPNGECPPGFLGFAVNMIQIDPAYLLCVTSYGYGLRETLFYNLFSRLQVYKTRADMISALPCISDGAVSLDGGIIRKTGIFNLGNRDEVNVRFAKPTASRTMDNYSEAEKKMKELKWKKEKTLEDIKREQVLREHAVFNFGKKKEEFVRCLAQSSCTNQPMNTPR

SUVR2-Flag (Arabidopsis) [2] = target: T1, SUVR2-Flag (Arabidopsis); assay: co-IP; protein extracts of Arabidopsis transgenic plants (or F1 hybrids with two tagged proteins); precipitated with anti-c-Myc agarose, anti-Flag M1 agarose or anti-AGO4 conjugated agarose; western blotting
SUVR2-Myc (Arabidopsis) [3] = target: T2, SUVR2-Myc (Arabidopsis) (UniProt Q9FNC7); assay: co-IP; protein extracts of Arabidopsis plants harboring two tagged proteins; anti-c-Myc agarose, anti-Flag M1 agarose or anti-AGO4 conjugated agarose; western blotting
T2 sequence: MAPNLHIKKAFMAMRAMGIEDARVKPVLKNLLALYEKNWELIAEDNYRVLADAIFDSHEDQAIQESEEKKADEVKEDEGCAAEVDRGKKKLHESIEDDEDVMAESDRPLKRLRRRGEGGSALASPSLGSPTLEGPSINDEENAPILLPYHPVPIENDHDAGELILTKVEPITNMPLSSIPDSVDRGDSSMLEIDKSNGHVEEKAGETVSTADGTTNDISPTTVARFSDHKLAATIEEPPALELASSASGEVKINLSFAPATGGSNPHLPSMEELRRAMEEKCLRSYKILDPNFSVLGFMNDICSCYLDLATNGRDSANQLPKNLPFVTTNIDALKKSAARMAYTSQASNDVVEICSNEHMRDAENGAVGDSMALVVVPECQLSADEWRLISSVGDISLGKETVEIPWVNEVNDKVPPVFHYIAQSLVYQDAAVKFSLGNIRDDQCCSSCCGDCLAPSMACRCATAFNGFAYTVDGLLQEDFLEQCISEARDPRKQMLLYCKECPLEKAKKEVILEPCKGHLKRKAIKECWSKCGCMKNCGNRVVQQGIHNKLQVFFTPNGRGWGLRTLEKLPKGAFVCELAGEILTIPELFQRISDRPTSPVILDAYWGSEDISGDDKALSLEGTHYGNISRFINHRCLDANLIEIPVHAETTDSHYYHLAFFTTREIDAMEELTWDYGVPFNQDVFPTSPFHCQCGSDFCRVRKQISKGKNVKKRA

SUVR2-Myc (Arabidopsis) [4] = target: T2, SUVR2-Myc (Arabidopsis); assay: co-IP; protein extracts of Arabidopsis transgenic plants (or F1 hybrids with two tagged proteins); precipitated with anti-c-Myc agarose, anti-Flag M1 agarose or anti-AGO4 conjugated agarose; western blotting
KTF1-Flag (Arabidopsis) = target: T3, KTF1-Flag (Arabidopsis) (UniProt F4JW79); assay: as above
T3 sequence: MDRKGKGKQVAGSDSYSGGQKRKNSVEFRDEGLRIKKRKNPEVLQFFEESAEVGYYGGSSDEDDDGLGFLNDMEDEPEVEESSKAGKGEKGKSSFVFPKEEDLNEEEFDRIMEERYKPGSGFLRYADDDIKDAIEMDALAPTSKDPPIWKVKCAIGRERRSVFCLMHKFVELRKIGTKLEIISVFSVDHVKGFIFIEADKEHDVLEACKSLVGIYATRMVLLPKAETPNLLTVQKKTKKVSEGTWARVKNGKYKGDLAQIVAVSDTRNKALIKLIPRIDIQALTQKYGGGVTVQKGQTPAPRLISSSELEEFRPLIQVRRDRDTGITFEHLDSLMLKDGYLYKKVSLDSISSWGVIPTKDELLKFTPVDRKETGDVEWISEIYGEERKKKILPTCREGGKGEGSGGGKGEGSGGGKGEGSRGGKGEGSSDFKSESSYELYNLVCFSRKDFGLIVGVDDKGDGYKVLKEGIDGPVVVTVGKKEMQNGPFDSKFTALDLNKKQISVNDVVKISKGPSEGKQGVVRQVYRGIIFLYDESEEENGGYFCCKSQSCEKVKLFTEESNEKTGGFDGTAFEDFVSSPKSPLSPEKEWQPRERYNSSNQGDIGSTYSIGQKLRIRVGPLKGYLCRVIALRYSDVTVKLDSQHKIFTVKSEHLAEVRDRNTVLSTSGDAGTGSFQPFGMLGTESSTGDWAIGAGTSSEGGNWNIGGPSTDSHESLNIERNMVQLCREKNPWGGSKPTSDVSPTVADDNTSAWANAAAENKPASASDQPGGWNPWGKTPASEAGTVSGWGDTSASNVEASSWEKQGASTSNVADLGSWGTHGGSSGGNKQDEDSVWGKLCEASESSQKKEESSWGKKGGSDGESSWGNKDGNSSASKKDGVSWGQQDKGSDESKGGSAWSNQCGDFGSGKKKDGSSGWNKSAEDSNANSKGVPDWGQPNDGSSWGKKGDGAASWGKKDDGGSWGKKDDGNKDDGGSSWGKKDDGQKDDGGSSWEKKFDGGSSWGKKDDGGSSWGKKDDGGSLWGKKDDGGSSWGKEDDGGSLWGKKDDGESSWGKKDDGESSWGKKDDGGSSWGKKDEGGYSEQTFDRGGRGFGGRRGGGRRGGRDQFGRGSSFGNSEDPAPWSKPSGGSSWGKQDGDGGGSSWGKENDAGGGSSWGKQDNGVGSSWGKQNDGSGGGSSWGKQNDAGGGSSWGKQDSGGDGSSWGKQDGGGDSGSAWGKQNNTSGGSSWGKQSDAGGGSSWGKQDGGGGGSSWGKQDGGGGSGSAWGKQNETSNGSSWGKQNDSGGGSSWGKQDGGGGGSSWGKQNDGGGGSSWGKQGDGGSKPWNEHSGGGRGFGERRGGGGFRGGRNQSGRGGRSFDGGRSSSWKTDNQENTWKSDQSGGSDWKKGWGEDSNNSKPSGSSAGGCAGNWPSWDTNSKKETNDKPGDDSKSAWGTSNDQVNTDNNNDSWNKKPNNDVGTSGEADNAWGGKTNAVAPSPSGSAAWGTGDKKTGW

SUVR2-Myc (Arabidopsis) [5] = target: T2, SUVR2-Myc (Arabidopsis); assay: SEC; gel filtration of plant protein; elution profiles of SUVR2-Myc, SUVR2-Flag, SUVR1-Flag, CHR19-Myc detected by western blotting with anti-Myc and anti-Flag antibody

binding (KTF1-Flag (Arabidopsis)): no binding
B2: SUVR2-Myc (protein, UniProt Q9FNC7 1-717)
chain: MAPNLHIKKAFMAMRAMGIEDARVKPVLKNLLALYEKNWELIAEDNYRVLADAIFDSHEDQAIQESEEKKADEVKEDEGCAAEVDRGKKKLHESIEDDEDVMAESDRPLKRLRRRGEGGSALASPSLGSPTLEGPSINDEENAPILLPYHPVPIENDHDAGELILTKVEPITNMPLSSIPDSVDRGDSSMLEIDKSNGHVEEKAGETVSTADGTTNDISPTTVARFSDHKLAATIEEPPALELASSASGEVKINLSFAPATGGSNPHLPSMEELRRAMEEKCLRSYKILDPNFSVLGFMNDICSCYLDLATNGRDSANQLPKNLPFVTTNIDALKKSAARMAYTSQASNDVVEICSNEHMRDAENGAVGDSMALVVVPECQLSADEWRLISSVGDISLGKETVEIPWVNEVNDKVPPVFHYIAQSLVYQDAAVKFSLGNIRDDQCCSSCCGDCLAPSMACRCATAFNGFAYTVDGLLQEDFLEQCISEARDPRKQMLLYCKECPLEKAKKEVILEPCKGHLKRKAIKECWSKCGCMKNCGNRVVQQGIHNKLQVFFTPNGRGWGLRTLEKLPKGAFVCELAGEILTIPELFQRISDRPTSPVILDAYWGSEDISGDDKALSLEGTHYGNISRFINHRCLDANLIEIPVHAETTDSHYYHLAFFTTREIDAMEELTWDYGVPFNQDVFPTSPFHCQCGSDFCRVRKQISKGKNVKKRA

binding (SUVR2-Myc (Arabidopsis) [3]): binds
binding (SUVR2-Myc (Arabidopsis) [5]): binds
B3: SUVR1-Flag (protein, UniProt Q946J2 1-734)
chain: MAPNLRIKKACDAMKLLGISETKTRAFLRKLLKTYENNWDFIEEDAYKVLLDAIFDEADAQSTEKNKKEEEKKKKEEEKKSRSVATSRGRRKAPEPLVQDEEDDMDEDEFPLKRRLRSRRGRASSSSSSSSSYNNEDLKTQPEEEDEDDGVTELPPLKRYVRRNGERGLAMTVYNNASPSSSSRLSMEPEEVPPMVLLPAHPMETKVSEASALVILNDEPNIDHKPVISDTGNCSAPMLEMGKSNIHVQEWDWETKDILNDTTAMDVSPSSAIGESSEHKVAAASVELASSTSGEAKICLSFAPATGETTNLHLPSMEDLRRAMEEKCLKSYKIVHPEFSVLGFMKDMCSCYIDLAKNSTSQLLETETVCDMSKAGDESGAVGISMPLVVVPECEISGDGWKAISNMKDITAGEENVEIPWVNEINEKVPSRFRYMPHSFVFQDAPVIFSLSSFSDEQSCSTSCIEDCLASEMSCNCAIGVDNGFAYTLDGLLKEEFLEARISEARDQRKQVLRFCEECPLERAKKVEILEPCKGHLKRGAIKECWFKCGCTKRCGNRVVQRGMHNKLQVFFTPNGKGWGLRTLEKLPKGAFICEYIGEILTIPELYQRSFEDKPTLPVILDAHWGSEERLEGDKALCLDGMFYGNISRFLNHRCLDANLIEIPVQVETPDQHYYHLAFFTTRDIEAMEELAWDYGIDFNDNDSLMKPFDCLCGSRFCRNKKRSTKTMQILNKA

Second part, the molecule before the results:

Molecule: DMS3 (from UniProt Q94A79 1-420)
binding (SUVR2-Flag (Arabidopsis) [1]): no binding
binding (SUVR2-Flag (Arabidopsis) [2]): no binding

B1: DRM2-Flag (protein, UniProt Q9M548 1-626)
chain: MVIWNNDDDDFLEIDNFQSSPRSSPIHAMQCRVENLAGVAVTTSSLSSPTETTDLVQMGFSDEVFATLFDMGFPVEMISRAIKETGPNVETSVIIDTISKYSSDCEAGSSKSKAIDHFLAMGFDEEKVVKAIQEHGEDNMEAIANALLSCPEAKKLPAAVEEEDGIDWSSSDDDTNYTDMLNSDDEKDPNSNENGSKIRSLVKMGFSELEASLAVERCGENVDIAELTDFLCAAQMAREFSEFYTEHEEQKPRHNIKKRRFESKGEPRSSVDDEPIRLPNPMIGFGVPNEPGLITHRSLPELARGPPFFYYENVALTPKGVWETISRHLFEIPPEFVDSKYFCVAARKRGYIHNLPINNRFQIQPPPKYTIHDAFPLSKRWWPEWDKRTKLNCILTCTGSAQLTNRIRVALEPYNEEPEPPKHVQRYVIDQCKKWNLVWVGKNKAAPLEPDEMESILGFPKNHTRGGGMSRTERFKSLGNSFQVDTVAYHLSVLKPIFPHGINVLSLFTGIGGGEVALHRLQIKMKLVVSVEISKVNRNILKDFWEQTNQTGELIEFSDIQHLTNDTIEGLMEKYGGFDLVIGGSPCNNLAGGNRVSRVGLEGDQSSLFFEYCRILEVVRARMRGS
binding (SUVR2-Myc (Arabidopsis) [3]): no binding
binding (SUVR2-Myc (Arabidopsis) [4]): no binding
